Results on 45 sequences are retold here after the supplement of paper PMC11417369.

± gives the standard deviation of the averaged measurements. The list shows a part of the results.

This assay relates to PfAP2-EXP AP2 domain (GST-tagged). Briefly: gcPBM binding intensity (ln(normalized median fluorescence intensity)); higher = stronger DNA binding. The method in brief:
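Binding intensity is the highest Masliner-normalised natural-log median intensity over replicate spots in either probe orientation. To obtain it, GST-tagged P. falciparum DNA-binding domains made in E. coli were incubated for 1 h on an Agilent 4 × 180k array of primer-extended double-stranded 36-bp intergenic genomic probes plus negative controls. Detection used Alexa488 anti-GST antibody with scanning at 488 nm.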
Consider “AATAAAAATTGGTAGGCACACATGGAACTATTAAAA [CACACA_site1257]”, for which the “gcPBM binding intensity (ln)” value turned out to be 8.86 ± 0.42. As for “ATGAACTATATTAAATCACACATTATCATTTTATAT [CACACA_site4989]”, the “gcPBM binding intensity (ln)” value is 8.39 ± 0.35.

With “TCGTATATGGATTTTGCACACAATTATAATTTAAAT [CACACA_site868]”, the “gcPBM binding intensity (ln)” value stood at 9.04 ± 0.35. In the case of “TATCCCTTAGAATACACACCCATATGAGCGTGAACT [CACACA_site2951]” it was 8.37 ± 0.54.

On to “TATATATTTTAAAATAGTACATATTATATAACCCAT [XGTACX_site2194]”, for which the “gcPBM binding intensity (ln)” value came to 8.73 ± 0.43. As to “ATATATATATATATATGTACACATTAATGTTTTTTT [XGTACX_site167]”, the “gcPBM binding intensity (ln)” value stood at 10.4 ± 0.24. The result for “AAAACTTGTCAGAATGGACACACGAATTAAAGGCCT [CACACA_site1215]” reads 8.79 ± 0.52; that for “TTATTTTTTATTATGTGTACATAACATCGCGATACA [XGTACX_site4359]”, 8.95 ± 0.47. In the case of “GATTTAGTTATTTAAACATGCAATTTATATAGAATT [TGCATGCA_site47]” it was 8.66 ± 0.34; in that of “CAACATTCGTATATCACACATTTGCATGTTGTCAAT [CACACA_site4470]”, 8.79 ± 0.35; in that of “TATTTATACATACATACACACATATAGATTTATATT [CACACA_site7851]”, 8.54 ± 0.4.

As for ATAAAATATATATTAGTGCACTAAAGGAAAAAAAAT, the “gcPBM binding intensity (ln)” value is 9.7 ± 0.31.

With AATATATATATTAGAGTGCACATAATTATTTGCTAA, the “gcPBM binding intensity (ln)” value came out at 8.77 ± 0.24.

Turning to “TATGTCAAATATATATGTACACAAATATACTATTAA [XGTACX_site2643]”, the “gcPBM binding intensity (ln)” value came out at 8.19 ± 0.3. Take “TGATATATATATATATATATAACACACGCAAAAAAA [TGCATGCA_negctrl_site240]”: the “gcPBM binding intensity (ln)” value came out at 8.73 ± 0.51. The result for “AAAAATTTCATATTCACACACAAAAAAAAAAAATAT [CACACA_site1592]” reads 8.59 ± 0.66; that for “ATAATCACAAATAATTGTACATTTTGTTATATATAT [XGTACX_site7704]”, 8.45 ± 0.28; that for “ATATGATATATATTCGGTACACATATATATAAAGAG [XGTACX_site430]”, 8.82 ± 0.28. As to TTTTTAATTTATTGTGTGCACACAACTATGAGTTTT, the “gcPBM binding intensity (ln)” value was determined as 8.81 ± 0.28. For the sequence “AAGTTTTCTTAAAATTGTACTTTTCAAAAATAATCT [XGTACX_site277]”, the “gcPBM binding intensity (ln)” value came out at 7.99 ± 0.3.

For the sequence “ATTTAAATAATATTCACACACAAAATTATATTTTAA [CACACA_site219]”, the “gcPBM binding intensity (ln)” value was 8.14 ± 0.46. “TTTATACTTGTAAATGCACACATAAGATGCGACTAA [CACACA_site8662]”: the “gcPBM binding intensity (ln)” value is 8.43 ± 0.32.

On to “ATATCCTTAAAAGATACACACATATGAATATTTTGT [CACACA_site3847]”, for which the “gcPBM binding intensity (ln)” value turned out to be 8.28 ± 0.34.

For the sequence “GTTTGTAAATATTTTACACACATATATATATATATA [CACACA_site1075]”, the “gcPBM binding intensity (ln)” value was found to be 10.2 ± 0.41. As to “ATTATAGACACGCGCACACACAACAAAAAAAAAAAA [CACACA_site9180]”, the “gcPBM binding intensity (ln)” value was 8.75 ± 0.62. In the case of “TTGGGGTATCTTCCTATGCACACTTGTTATGTACTA [CACACA_site831]” it was 9.14 ± 0.45.

On to “TTGCTCACAAGAAGCACACAAAAAAAGAAAAAAAAA [CACACA_site4047]”, for which the “gcPBM binding intensity (ln)” value was determined as 8.11 ± 0.24.

Consider “TTGATTACTAGAAATGCACACACTGATAAAATAAGG [CACACA_site4134]”, for which the “gcPBM binding intensity (ln)” value came out at 8.79 ± 0.32. The result for “ATACTTTTAAATTGATGTACTTTATTTATAAGGTGA [XGTACX_site6746]” reads 8.38 ± 0.38.

Turning to “TACATGATATATCACACACACATATAAATATATATA [CACACA_site2831]”, the “gcPBM binding intensity (ln)” value was determined as 8.59 ± 0.45. For the sequence “TATAAAACGGATGAACAACAAATCATATGGCACAAA [TGCATGCA_negctrl_site608]”, the “gcPBM binding intensity (ln)” value amounted to 9.03 ± 0.071. As for “TTCACAAAATATTATTGTACATTAAAATATTTATAT [XGTACX_site2535]”, the “gcPBM binding intensity (ln)” value is 8.3 ± 0.37. Turning to “GAAAATTTCTTATTTTGTACACACAATAAATATTCA [XGTACX_site3267]”, the “gcPBM binding intensity (ln)” value is 8.4 ± 0.36. The result for “GTTTTTTTATTTCATCGTACAAAAAAGAAGGCTTTA [XGTACX_site5291]” reads 8.4 ± 0.4. With “TTATATATTTATTTATGTACATATTTTTTTATTATA [XGTACX_site6115]”, the “gcPBM binding intensity (ln)” value stood at 8.77 ± 0.33. In the case of “TAAATATGTATTCATACATGCACATATATATATATA [TGCATGCA_site584]” it was 10.2 ± 0.3. The result for “TAAAAAATAAAAAAAGCACACACATATATATATATA [CACACA_site8567]” reads 10.3 ± 0.25; that for “AAAATAAGAAATTGAAAAATTGAAAACAAAATTAAA [CACACA_negctrl_site1285]”, 8.33 ± 0.42. In the case of “TTACAAATGTTTTACACACACATAATTGTATCAATT [CACACA_site6147]” it was 8.51 ± 0.33. As for “ACTACTCCATTAAGTAGTACACAAAAAAAAAAAATA [XGTACX_site7031]”, the “gcPBM binding intensity (ln)” value was found to be 8.44 ± 0.5. The result for “TAATAAAACATATATACACACATTATAAATACATAT [CACACA_site5014]” reads 8.53 ± 0.35; that for “TATAAATAAAAACACACACACATATATATATATATA [CACACA_site2319]”, 10.1 ± 0.32. In the case of “CCATTTTAAATATGCACACAGATGCACTAACCCATT [CACACA_site1883]”, the “gcPBM binding intensity (ln)” value came to 9 ± 0.028. For the sequence “TAAAAATTAATATAAACACACAAAAATTAATAAATA [CACACA_site381]”, the “gcPBM binding intensity (ln)” value turned out to be 8.51 ± 0.34. For the sequence “TCGGGAGGGGGGAAGCGTACATATATAAAATTATTA [XGTACX_site4683]”, the “gcPBM binding intensity (ln)” value stood at 10.4.
